From the supplement of paper PMC10441789
The list shows a part of the results. Antibody binding of pooled human sera (four to six donors per pool; dilution not stated) to peptides of the Trypanosoma cruzi antigen TSSA on microarrays. Quantile-normalised fluorescence in arbitrary units, mean of duplicate arrays; higher = more binding. No active / inactive call. The uninfected pools are read here as the healthy donors of the same country. The strongest signals lie near the top of the scale (about 60,000).

Experiments:
Test in all cases: antibody binding signal (normalised fluorescence) (arbitrary fluorescence units); higher = stronger serum antibody binding to peptide
[1] = test system: pooled sera of chronic Chagas disease patients, Argentina
Experimental: (§1)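 Microarray of 15-residue peptides over residues 30-55 of Trypanosoma cruzi TSSAII, each with 1 to 10 substitutions at naturally variable positions, probed with one serum pool per country.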

[2] = test system: pooled sera of chronic Chagas disease patients, Bolivia
Experimental: as §1

[3] = test system: pooled sera of chronic Chagas disease patients, Brazil
Experimental: as §1

[4] = test system: pooled sera of chronic Chagas disease patients, Colombia
Experimental: as §1

[5] = test system: pooled sera of chronic Chagas disease patients, Mexico
Experimental: as §1

[6] = test system: pooled sera of chronic Chagas disease patients, USA
Experimental: as §1

[7] = test system: pooled sera of uninfected people, Argentina
Experimental: as §1

[8] = test system: pooled sera of uninfected people, Bolivia
Experimental: as §1

[9] = test system: pooled sera of uninfected people, Brazil
Experimental: as §1

[10] = test system: pooled sera of uninfected people, Colombia
Experimental: as §1

[11] = test system: pooled sera of uninfected people, Mexico
Experimental: as §1

[12] = test system: pooled sera of uninfected people, USA
Experimental: as §1

Sequence	antibody binding signal [1]	antibody binding signal [2]	antibody binding signal [3]	antibody binding signal [4]	antibody binding signal [5]	antibody binding signal [6]	antibody binding signal [7]	antibody binding signal [8]	antibody binding signal [9]	antibody binding signal [10]	antibody binding signal [11]	antibody binding signal [12]
GKDKKTATGGTPSQS	484	216	287	1270	774	1480	279	96.8	106	114	122	108
SGTDNKPAAGGAPSP	3490	1680	44200	3920	359	1060	153	601	364	289	398	247
DKKTAAGETPSQPGA	441	752	27100	360	422	2490	173	594	188	1150	364	194
SGKDNKTAAGEAPSP	919	422	2020	3490	1130	8270	270	206	235	690	152	143
ENKTATGETPSPSGA	567	1690	1690	268	196	7650	175	235	196	188	155	614
DKKPATGGAPSPSGA	1250	808	1030	2930	956	2770	574	894	150	132	132	167
KDKKPATGGTPSQPG	478	240	687	655	187	508	288	94.1	227	119	169	87.3
KDKKAATGETPSQPG	1360	287	19300	116	162	7410	199	109	98.6	219	89.9	110
TENKAAAGETPSQSG	28800	465	15300	228	255	2500	81.9	189	138	135	267	110
EKKAAAGETPSQSGA	887	295	4510	431	320	2640	153	1330	130	759	308	1240
DKKTAAGGTPSQSGA	736	217	235	9310	440	1760	249	108	833	172	678	207
KDKKAATGEAPSPSG	7810	5110	14500	148	212	16600	268	86.5	106	142	73.9	103
KEKKPAAGGTPSQSG	218	229	177	1160	170	369	134	100	626	114	79.4	319
PPSGTENKPATGGAP	48100	48200	48900	361	4520	21000	5120	2970	908	960	804	1400
SGKEKKAATGEAPSQ	17800	4490	20800	1460	3540	19800	448	166	87.3	230	86.2	124
TDKKPAAGGAPSQPG	642	506	9210	5370	338	494	160	795	498	125	161	234
ENKPAAGETPSPPGA	463	1280	21100	321	349	4320	183	329	174	136	126	377
KDNKPAAGEAPSPPG	727	324	30200	390	145	14700	358	382	188	232	303	90.3
GTENKTAAGETPSQP	30200	4570	31600	2110	3040	3390	189	384	203	232	193	114
PPSGKDNKAATGGTP	429	281	1280	561	2730	2170	291	349	212	166	89.9	149
PPSGTENKTATGETP	49100	41000	46600	285	4140	13700	1540	360	280	286	228	465
SGTDKKAAAGEAPSP	342	1180	9070	4870	529	11800	182	185	206	243	816	168
KENKTAAGGAPSPPG	209	227	238	3400	275	611	198	111	144	123	97.6	156
ENKPATGETPSQSGA	38500	38100	40800	286	455	29200	344	453	337	107	2030	223
PSGTDNKPATGEAPS	48800	42900	49400	1920	409	41800	1090	992	683	360	385	210
